Data: paper PMC6919601, “Identification of Plasmodium dipeptidyl aminopeptidase allosteric inhibitors by high throughput screening” (PLoS ONE, 2019)
About 230 (0.21%) of roughly 110,000 compounds showed an effect of 50% or more. The list shows a part of the results.

Target: DPAP1 (Plasmodium falciparum, UniProt Q8IIJ9)
Assay: primary screen, percent inhibition; read by cleavage of a fluorogenic dipeptide substrate; higher = more effect of the substance
Parameters: species or system P. falciparum D10 trophozoite lysates; single well
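Note: 30 min substrate incubation versus DMSO and 10 µM JCP410 controls.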

Sequence of DPAP1 (Q8IIJ9 whole entry, looked up): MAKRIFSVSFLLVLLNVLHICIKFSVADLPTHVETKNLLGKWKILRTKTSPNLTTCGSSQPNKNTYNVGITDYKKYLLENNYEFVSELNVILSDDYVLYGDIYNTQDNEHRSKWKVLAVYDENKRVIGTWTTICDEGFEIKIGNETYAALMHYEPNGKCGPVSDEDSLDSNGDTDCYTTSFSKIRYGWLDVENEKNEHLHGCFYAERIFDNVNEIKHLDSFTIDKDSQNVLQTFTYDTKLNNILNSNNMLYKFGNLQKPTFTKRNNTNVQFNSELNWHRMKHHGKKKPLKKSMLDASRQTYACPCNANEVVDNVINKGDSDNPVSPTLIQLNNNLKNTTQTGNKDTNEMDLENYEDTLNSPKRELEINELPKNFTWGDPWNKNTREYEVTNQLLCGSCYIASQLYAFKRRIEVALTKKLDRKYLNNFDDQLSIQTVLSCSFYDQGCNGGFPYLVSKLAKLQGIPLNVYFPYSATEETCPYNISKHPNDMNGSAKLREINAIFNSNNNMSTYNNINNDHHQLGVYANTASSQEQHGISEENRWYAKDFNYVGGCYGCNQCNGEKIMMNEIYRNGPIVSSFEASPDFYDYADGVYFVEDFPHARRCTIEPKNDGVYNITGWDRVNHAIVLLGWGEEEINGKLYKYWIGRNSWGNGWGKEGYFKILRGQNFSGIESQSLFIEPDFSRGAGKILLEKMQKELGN

Row | SMILES | % Inhibition @ 10 uM [%]
1 | CC(=O)N1CCc2c(sc3c2c(=O)n(CCc2ccccc2)c(=O)n3Cc2cc(C)ccc2C)C1 | -7.18
2 | CC(C)OCCCn1c(=O)c2ccccc2n2c(CCC(=O)NCc3ccc4c(c3)OCO4)nnc12 | 3.54
3 | CSc1ccc(CN2CCN(c3ccc(Cl)cc3)CC2)cc1 | -2.81
4 | CCOC(=O)c1nnn(-c2ccc(OCC)cc2)c1C(=O)OCC | -5.27
5 | CCOc1ccc(C2C(C(=O)Nc3cccnc3)=C(C)Nc3nc(SCc4ccccc4)nn32)cc1 (stereo not drawn) | -1.2
6 | CC1=C(C(=O)Nc2ccccc2)C(c2ccccc2)C(C#N)=C(SCc2ccccc2)N1 (stereo not drawn) | 7.47
7 | COc1ccc(Cl)cc1-n1c(SCc2cccc(F)c2)nc2nncc-2c1O | 0.238
8 | CC(C)C(O)(c1ccccc1)C(CN1CCOCC1)c1ccccc1 (stereo not drawn) | -0.551
9 | COc1ccc(CC(=O)Nc2c3c(nn2-c2cccc(C)c2C)CS(=O)(=O)C3)cc1 | 12.2
10 | CC12C=CC3(CN(Cc4ccccc4)C(=O)C3C1C(=O)NCc1ccco1)O2 (stereo not drawn) | -3.94
11 | Cc1ccc(CSc2nc(C)c3c(n2)CCCC3)cc1 | 0.189
12 | CCCC[C@H](NC(=O)c1cccc(NC(=O)OC(C)(C)C)c1)C(=O)NCC#N | -3.49
13 | COc1ccc(CCNC(=O)c2ccc3nc(N4CCOCC4)sc3c2)cc1OC | 1.03
14 | O=C(Cn1cc2c(n1)CCCC2)NCCCN1CCOCC1 | 6.46
15 | CN(C)CCN(C)Cc1c(Cl)cccc1Cl | -4.04
16 | Cc1ccsc1CN1CCN(C/C=C/c2ccccc2)CC1 | -0.261
17 | CC(=O)Nc1ccc(S(=O)(=O)Nc2ccc(C)cc2Br)cc1 | -3.45
18 | CCOC(=O)c1ccc(NC(=O)/C=C/C(=O)O)cc1 | 7.8
19 | CN1CCC(N2CCN(c3ccccc3)CC2)CC1 | -0.603
20 | CCSC1=NC(C)(C)Cc2cc(OC)c(OC)cc21 | -5.38
21 | CC(=O)Nc1ccc(S(=O)(=O)Nc2ccc(Cl)cc2C)cc1 | 3.09
22 | COc1ccc(-c2cc(=O)c3c(ccc4ccccc43)o2)cc1 | -7.56
23 | CCOc1ccc(C2(O)CSC3=C(C#N)C(c4cccc(OC)c4OC)CC(=O)N32)cc1 (stereo not drawn) | 3.24
24 | Cc1cc(C)nc(NC(=O)c2cccc3ccccc23)c1 | -1.42
25 | COc1ccc(/C=C(\NC(=O)c2ccco2)C(=O)Nc2ccc(C(C)=O)cc2)cc1 | -5.07
26 | CCN(CC)CCNC(=O)Cn1nc(-c2ccc(Cl)cc2)ccc1=O | -0.0542
27 | O=C(c1ccccc1Cl)N1CCC(Cc2ccccc2)CC1 | -4.4
